Laboratory results published in a compilation of properties of binary mixtures (doi:10.1016/j.molliq.2016.01.096).
The densities may have been worked out from excess volumes.

Assay: xn = mol fraction of the nth substance listed
Details: 100 kPa

CCOS(=O)(=O)[O-].CC[n+]1ccn(C)c1 + CCOCCO
x2 = 0
Details | mass density [kg/m3]
298.15 K | 1236.4
318.15 K | 1222.8
328.15 K | 1216.2

CCOCCO + CCOS(=O)(=O)[O-].CC[n+]1ccn(C)c1
mass density [kg/m3]
Details | 298.15 K | 308.15 K | 318.15 K | 328.15 K
x1 = 0.0588 | – | – | 1213.6 | –
x1 = 0.1202 | 1216.9 | 1210 | – | 1196.3
x1 = 0.1846 | 1205.4 | 1198.4 | 1191.6 | 1184.6
x1 = 0.2326 | – | 1189.2 | – | –
x1 = 0.3548 | 1170.8 | 1163.7 | 1156.6 | 1149.4
x1 = 0.4516 | – | 1140.7 | 1133.5 | 1126.2
x1 = 0.5511 | 1121.4 | 1114 | 1106.6 | –
x1 = 0.6529 | 1089.9 | 1082.3 | 1074.6 | 1066.9
x1 = 0.741 | – | – | 1042.2 | –
x1 = 0.8273 | – | – | 1005 | 996.6
x1 = 0.8658 | – | – | 986.4 | –
x1 = 0.9094 | 980.4 | 971.9 | 963.3 | 954.5
x1 = 0.9512 | 956.6 | 947.9 | 939.1 | 930
x1 = 1 | 925.9 | 916.9 | 907.7 | 898
